Growth inhibition call data for eleven compounds are collected here from the antibiotic and cytotoxicity screens of Wong et al. (2023).

Some of the results follow.

In this assay the test system is S. aureus RN4220. The assay can be described thus: growth inhibition call (relative growth <= 0.2). Particulars: 50 µM.
In the case of `C[C@@H]1CC=CC[C@@H](c2cccc(Cl)c2)NC(=O)[C@H](Cc2ccccc2)N(C)C(=O)c2ccccc2O1`, the growth inhibition call is “inactive”.

As for `CC(C)N1C[C@H](C)[C@@H](CN(C)Cc2ccc(Oc3ccccc3)cc2)Oc2c(NC(=O)c3ccccc3)cccc2C1=O`, the growth inhibition call is “inactive”.

In the case of `COCC(=O)Nc1ccc2c(c1)C(=O)N(C)C[C@@H](OC)[C@H](C)CN(Cc1ccccc1F)[C@H](C)CO2`, the growth inhibition call was “inactive”.

Regarding `COc1ccc(NC(=O)Nc2ccc3c(c2)C(=O)N([C@H](C)CO)C[C@H](C)[C@H](CN(C)Cc2ccc(Oc4ccccc4)cc2)O3)cc1`, the growth inhibition call was “inactive”.

As for `C[C@H]1CN([C@@H](C)CO)C(=O)c2cc(NC(=O)Nc3cccc4ccccc34)ccc2O[C@H]1CN(C)Cc1ccc(C(F)(F)F)cc1`, the growth inhibition call was “inactive”.

With `C[C@H]1CN([C@@H](C)CO)S(=O)(=O)c2ccc(C3=CCCC3)cc2O[C@H]1CN(C)C(=O)c1cnccn1`, the growth inhibition call is “inactive”.

`Cc1ccc(/C=N/N(C)C2=NCCN2)o1`: the growth inhibition call was “inactive”.

Consider `C[C@@H]1CN([C@@H](C)CO)C(=O)Cc2cc(NC(=O)CCC(F)(F)F)ccc2O[C@@H]1CN(C)Cc1ccc(C(=O)Nc2ccccc2N)cc1`, for which the growth inhibition call is “inactive”.

As to `CC(=CCC1=C(C)C(=O)c2ccccc2C1=O)CCCC(C)CCCC(C)CCCC(C)C` (stereo unspecified), the growth inhibition call was “inactive”.

Take `C[C@@H]1CCCCO[C@@H](CN(C)C(=O)Nc2ccc(C(F)(F)F)cc2)[C@@H](C)CN([C@H](C)CO)C(=O)c2cc(NS(=O)(=O)c3cn(C)cn3)ccc2O1`: the growth inhibition call is “inactive”.

For the compound `C[C@@H]1CN([C@@H](C)CO)C(=O)c2cccc(NS(C)(=O)=O)c2O[C@@H]1CN(C)S(=O)(=O)c1ccc(Cl)cc1`, the growth inhibition call is “inactive”.
